Assay results: the supplement of paper PMC12217912
Some of the results follow. The full chains were built here from the parent and the listed change. Inactive controls read about 0.05.

B1: TEV protease; numbered along this chain (parent)
chain: MGESLFKGPRDYNPISSSICHLTNESDGHTTSLYGIGFGPFIITNKHLFRRNNGTLVVQSLHGVFKVKDTTTLQQHLVDGRDMIIIRMPKDFPPFPQKLKFREPQREERICLVTTNFQTKSMSSMVSDTSCTFPSGDGIFWKHWIQTKDGQCGSPLVSTRDGFIVGIHSASNFTNTNNYFTSVPKNFMELLTNQEAQQWVSGWRLNADSVLWGGHKVFMVKPEEPFQPVKEATQL

Variants of: B1
Assay: raw area under fraction-flipped curve 0-4 h after induction (AUC4h, not background-subtracted), DNA-recorder readout of cleavage of the substrate (dimensionless); higher = more cleavage of the substrate by the protease variant
Conditions: temperature: 34 °C; time window: 0-4 h after rhamnose induction
Method: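 In vivo DNA recorder in E. coli TOP10(DE3) ΔrhaA at 34 °C. Each TEVp single-site mutant (parent TEVp 0) is paired with a single-site variant of the 7-mer TEVs (canonical ENLYFQ|S). The substrate sits between flexible linkers in a Bxb1-sfGFP-TEVs-SsrA fusion, so cleavage stabilises Bxb1 and speeds flipping of a recombination array, read by NGS. The value is the raw area under the fraction-flipped curve over 0-4 h after rhamnose induction (AUC4h), with ≥20 reads per time point. It is not background-subtracted; inactive controls average about 0.047.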
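Note: Bxb1 expression induced with 0.2% (w/v) L-rhamnose at OD600 near 0.5, cultures sampled hourly, flipped fraction per protease–substrate barcode pair counted by paired-end Illumina sequencing.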

Variant | area with substrate ENLYFAS | area with substrate ENLYFDS | area with substrate ENLYFES | area with substrate ENLYFFS | area with substrate ENLYFGS | area with substrate ENLYFHS | area with substrate ENLYFIS | area with substrate ENLYFKS | area with substrate ENLYFMS | area with substrate ENLYFNS | area with substrate ENLYFPS | area with substrate ENLYFSS | area with substrate ENLYFTS | area with substrate ENLYFVS | area with substrate ENLYFWS | area with substrate ENLYFYS | area with substrate ENLYFCS | area with substrate ENLYFLS | area with substrate ENLYFRS
E223R | 0.064 | 0.0584 | 0.0571 | 0.0708 | 0.0537 | 0.0597 | 0.0657 | 0.0457 | 0.0763 | 0.0772 | 0.0646 | 0.0596 | 0.0588 | 0.0347 | 0.0435 | 0.0473 | – | – | –
F187H | 0.0656 | – | – | 0.049 | – | 0.0549 | 0.0543 | 0.056 | 0.0495 | 0.0548 | 0.0578 | 0.0301 | 0.0735 | – | – | 0.0332 | 0.0485 | 0.0498 | 0.0815
Q194E | 0.0636 | – | 0.0649 | 0.0919 | – | 0.0616 | 0.0557 | – | – | – | 0.0772 | 0.0697 | 0.0437 | 0.0511 | 0.0485 | 0.0689 | – | – | –
P222Y | 0.0364 | 0.0594 | 0.0635 | 0.0659 | – | 0.0734 | 0.0582 | – | 0.0611 | 0.0724 | 0.0682 | 0.0653 | – | – | 0.0588 | 0.0388 | 0.0525 | 0.0664 | –
P222Q | 0.058 | – | 0.0641 | 0.0658 | 0.0685 | 0.049 | 0.0831 | 0.0562 | 0.0729 | 0.062 | 0.0663 | 0.0571 | 0.0569 | 0.0587 | 0.0391 | 0.0637 | 0.0466 | 0.0474 | 0.0601
N206T | 0.0327 | – | – | 0.0769 | – | – | 0.0515 | 0.0589 | 0.0573 | 0.0597 | 0.0621 | – | 0.0637 | – | 0.0614 | – | 0.0869 | – | 0.0654
F226K | 0.0601 | 0.0625 | 0.062 | 0.0714 | – | 0.0535 | 0.0439 | 0.0447 | 0.0612 | 0.0615 | 0.0604 | 0.0691 | 0.0636 | 0.0472 | 0.0618 | 0.0523 | 0.0094 | 0.0624 | 0.0544
G213D | 0.0443 | – | 0.0494 | 0.0746 | – | – | 0.0584 | – | 0.0627 | – | 0.0672 | 0.0637 | 0.0532 | – | 0.0561 | – | – | – | 0.0547
G213M | 0.0628 | – | 0.0539 | 0.075 | – | – | 0.0546 | 0.0604 | 0.0594 | – | 0.0522 | 0.0668 | 0.0582 | – | – | 0.064 | 0.0648 | – | –
G213W | 0.0558 | 0.0661 | 0.0562 | 0.0643 | – | – | 0.0552 | 0.0684 | 0.0574 | 0.0694 | 0.0531 | – | 0.0583 | – | 0.0705 | 0.0473 | 0.0577 | 0.0605 | 0.0581
W199D | 0.0247 | 0.0619 | 0.0607 | 0.0709 | 0.0705 | – | 0.0617 | 0.0703 | 0.0611 | – | 0.0594 | – | 0.0565 | 0.0735 | 0.0612 | 0.0553 | 0.0617 | – | 0.0657
A196Q | 0.0541 | – | 0.0666 | 0.0653 | – | – | 0.0676 | 0.0666 | – | 0.0625 | 0.0566 | – | 0.0562 | 0.0632 | 0.0622 | – | – | – | 0.0611
A196H | 0.0341 | 0.0561 | – | 0.0636 | 0.0571 | 0.0659 | 0.0526 | 0.065 | 0.0774 | 0.0669 | 0.0423 | 0.0585 | – | – | 0.0527 | – | – | 0.0847 | 0.0463
A196I | 0.0696 | 0.0631 | 0.0701 | 0.0614 | 0.0668 | 0.0524 | 0.0544 | – | 0.0666 | 0.0561 | 0.0558 | 0.0816 | 0.0558 | 0.0432 | 0.0562 | 0.0534 | 0.0567 | 0.0527 | 0.0435
Q227T | 0.0517 | 0.0624 | – | 0.0841 | – | 0.0401 | 0.0606 | 0.0563 | – | 0.0678 | 0.0616 | – | 0.0553 | – | – | – | 0.0527 | – | –
W212F | 0.0545 | 0.0755 | 0.0578 | 0.0583 | – | – | 0.0474 | 0.0492 | – | 0.0713 | 0.0713 | 0.0584 | 0.0555 | – | 0.0589 | – | 0.0595 | 0.0547 | 0.0673
W212D | 0.0588 | – | 0.0542 | 0.0797 | – | 0.0319 | 0.0532 | 0.0618 | 0.066 | – | 0.051 | – | 0.0591 | 0.0661 | 0.0663 | – | – | – | 0.0553
L190W | 0.0681 | 0.0609 | 0.0663 | 0.085 | – | 0.0376 | 0.045 | 0.0715 | 0.0582 | – | 0.0562 | 0.0883 | 0.0479 | 0.0767 | 0.0613 | 0.0445 | 0.052 | – | –
W203E | 0.0714 | – | 0.0595 | 0.0565 | – | 0.0553 | 0.0568 | – | 0.0463 | 0.0685 | 0.0826 | 0.0456 | – | 0.0482 | 0.0552 | 0.0331 | 0.0533 | – | 0.0573
M188Y | 0.0419 | – | 0.0762 | 0.0673 | – | – | 0.0541 | 0.0395 | 0.0707 | 0.0609 | 0.0598 | 0.0576 | – | 0.0479 | 0.0487 | – | 0.061 | – | 0.0363
H215R | 0.0413 | – | – | 0.0498 | – | 0.0543 | 0.0525 | – | 0.0823 | 0.0664 | – | 0.0548 | 0.0627 | – | 0.0494 | – | 0.0584 | 0.0565 | 0.0612
H215E | 0.0499 | – | 0.0594 | 0.0573 | – | – | 0.0531 | 0.0646 | 0.0512 | 0.0631 | 0.0543 | – | 0.0585 | – | 0.0649 | – | – | 0.0326 | –
F218L | 0.0595 | 0.0593 | 0.0631 | 0.0746 | – | – | 0.0444 | 0.0872 | 0.0605 | 0.0424 | 0.0603 | – | 0.056 | 0.0464 | – | – | 0.044 | 0.0534 | 0.0503
K185I | 0.0627 | 0.0575 | 0.0682 | 0.0496 | – | 0.069 | 0.0587 | 0.0655 | 0.0684 | 0.067 | 0.0561 | 0.0567 | 0.0492 | 0.0542 | – | – | 0.0364 | 0.0377 | –
R204Q | 0.0458 | 0.0738 | 0.0731 | 0.0754 | – | 0.0722 | 0.0495 | 0.0505 | 0.0614 | – | 0.0602 | 0.0737 | 0.0598 | – | 0.0578 | 0.0713 | 0.0602 | – | 0.0691
K230T | 0.0512 | – | 0.0721 | 0.0746 | 0.0716 | – | 0.0585 | – | 0.0635 | 0.0719 | 0.0611 | 0.0509 | 0.061 | – | 0.0695 | – | 0.0498 | 0.0508 | 0.0542
